Measured values from patent publication US12508261B2, “Methods of treating depression with vortioxetine” (Rundle Research LLC, priority 2017, dated 2025).
The source gives many values for each of these; only a part stands here.

How the values were obtained:
[1] = all subjects incl. intermediate and poor CYP2D6 metabolizers; Areberg et al.; cited from earlier work
[2] = Regression model estimating vortioxetine half-life and MAOI delay from total body fat and steady-state plasma concentration (CYP2D6 metabolizer status); set-up: species or system human
From the text: Data obtained in the study described in Example 1 and Table 1 provided the basis for a regression model (having a r^2 value of 88%) based on total body fat and steady-state vortioxetine plasma concentration. Because the steady-state plasma concentration of vortioxetine correlates with metabolizer status, this regression provides a means of estimating vortioxetine half-life for patients based on total body fat and CYP2D6 metabolizer status.
Alternatively, the delay period can be calculated based on any particular values in Table 1, or any statistical parameter for characterizing the subject population of Table, such as the arithmetic mean, geometric mean, maximum, minimum, maximum or minimum 90% confidence interval, etc. of the half-life (e.g., 7.5×the average t1/2, 7.5×the maximum t1/2, and so forth, or the 21 day equivalency to a normal weight extensive metabolizer subject, based on the average t1/2 or the maximum t1/2 or any of the aforementioned statistically parameters).

[3] = Extensive(a) average of obese steady-state concentration for extensive metabolizers, total fat 60 kg
[4] = Extensive(a) average of obese steady-state concentration for extensive metabolizers, total fat 70 kg
[5] = Extensive(a) average of obese steady-state concentration for extensive metabolizers, total fat 80 kg
[6] = Extensive(a) average of obese steady-state concentration for extensive metabolizers, total fat 90 kg
[7] = Extensive(a) average of obese steady-state concentration for extensive metabolizers, total fat 100 kg
[8] = Extensive(b) high of extensive metabolizers, total fat 40 kg
[9] = Extensive(b) high of extensive metabolizers, total fat 50 kg
[10] = Extensive(b) high of extensive metabolizers, total fat 60 kg
[11] = Extensive(b) high of extensive metabolizers, total fat 70 kg
[12] = Extensive(b) high of extensive metabolizers, total fat 80 kg
[13] = Extensive(b) high of extensive metabolizers, total fat 90 kg
[14] = Extensive(b) high of extensive metabolizers, total fat 100 kg
[15] = IM(c) average of intermediate metabolizer values, total fat 10 kg
[16] = IM(c) average of intermediate metabolizer values, total fat 20 kg
[17] = IM(c) average of intermediate metabolizer values, total fat 30 kg
[18] = IM(c) average of intermediate metabolizer values, total fat 40 kg
[19] = IM(c) average of intermediate metabolizer values, total fat 50 kg
[20] = IM(c) average of intermediate metabolizer values, total fat 60 kg
[21] = IM(c) average of intermediate metabolizer values, total fat 70 kg
[22] = IM(c) average of intermediate metabolizer values, total fat 80 kg
[23] = IM(c) average of intermediate metabolizer values, total fat 90 kg
[24] = IM(c) average of intermediate metabolizer values, total fat 100 kg
[25] = IM(d) high of IM values, total fat 70 kg
[26] = IM(d) high of IM values, total fat 80 kg
[27] = PM(e) estimated poor metabolizer values, total fat 10 kg
[28] = PM(e) estimated poor metabolizer values, total fat 20 kg
[29] = PM(e) estimated poor metabolizer values, total fat 30 kg
[30] = PM(e) estimated poor metabolizer values, total fat 40 kg
[31] = PM(e) estimated poor metabolizer values, total fat 50 kg
[32] = PM(e) estimated poor metabolizer values, total fat 60 kg
[33] = PM(e) estimated poor metabolizer values, total fat 70 kg
[34] = PM(e) estimated poor metabolizer values, total fat 80 kg
[35] = PM(e) estimated poor metabolizer values, total fat 90 kg
[36] = PM(e) estimated poor metabolizer values, total fat 100 kg

For `Cc1ccc(Sc2ccccc2N2CCNCC2)c(C)c1` [vortioxetine], the mean elimination half-life [1] is given as 65.8 h, the “Weeks of Delay (21 day equivalency to Normal, 54 hr half-life)” value ([2]; Extensive(a) average of obese steady-state concentration for extensive metabolizers, total fat 50 kg) is given as 3.5 Weeks and the “Weeks of Delay (21 day equivalency to Normal, 54 hr half-life)” value [2, 3] is given as 4.1 Weeks. The “Weeks of Delay (21 day equivalency to Normal, 66 hr half-life)” value [2, 3] was 3.3 Weeks, the “Weeks of Delay (21 day equivalency to Normal, 54 hr half-life)” value [2, 4] was 4.6 Weeks and the “Weeks of Delay (21 day equivalency to Normal, 66 hr half-life)” value [2, 4] was 3.8 Weeks. For the same molecule, the “Weeks of Delay (21 day equivalency to Normal, 54 hr half-life)” value [2, 5] was 5.2 Weeks, the “Weeks of Delay (21 day equivalency to Normal, 66 hr half-life)” value [2, 5] was 4.2 Weeks and the “Weeks of Delay (21 day equivalency to Normal, 54 hr half-life)” value [2, 6] was 5.8 Weeks. For the same molecule, the “Weeks of Delay (21 day equivalency to Normal, 66 hr half-life)” value [2, 6] was 4.7 Weeks, the “Weeks of Delay (21 day equivalency to Normal, 54 hr half-life)” value [2, 7] was 6.4 Weeks and the “Weeks of Delay (21 day equivalency to Normal, 66 hr half-life)” value [2, 7] was 5.2 Weeks. For the same molecule, the “Weeks of Delay (21 day equivalency to Normal, 54 hr half-life)” value ([2]; Extensive(b) high of extensive metabolizers, total fat 30 kg) was 3.3 Weeks, the “Weeks of Delay (21 day equivalency to Normal, 54 hr half-life)” value [2, 8] was 3.9 Weeks and the “Weeks of Delay (21 day equivalency to Normal, 66 hr half-life)” value [2, 8] was 3.2 Weeks. For the same molecule, the “Weeks of Delay (21 day equivalency to Normal, 54 hr half-life)” value [2, 9] was 4.5 Weeks, the “Weeks of Delay (21 day equivalency to Normal, 66 hr half-life)” value [2, 9] was 3.6 Weeks and the “Weeks of Delay (21 day equivalency to Normal, 54 hr half-life)” value [2, 10] was 5.0 Weeks. The “Weeks of Delay (21 day equivalency to Normal, 66 hr half-life)” value [2, 10] was 4.1 Weeks, the “Weeks of Delay (21 day equivalency to Normal, 54 hr half-life)” value [2, 11] was 5.6 Weeks and the “Weeks of Delay (21 day equivalency to Normal, 66 hr half-life)” value [2, 11] was 4.6 Weeks. For the same molecule, the “Weeks of Delay (21 day equivalency to Normal, 54 hr half-life)” value [2, 12] was 6.2 Weeks, the “Weeks of Delay (21 day equivalency to Normal, 66 hr half-life)” value [2, 12] was 5.0 Weeks and the “Weeks of Delay (21 day equivalency to Normal, 54 hr half-life)” value [2, 13] was 6.7 Weeks. For the same molecule, the “Weeks of Delay (21 day equivalency to Normal, 66 hr half-life)” value [2, 13] was 5.5 Weeks, the “Weeks of Delay (21 day equivalency to Normal, 54 hr half-life)” value [2, 14] was 7.3 Weeks and the “Weeks of Delay (21 day equivalency to Normal, 66 hr half-life)” value [2, 14] was 6.0 Weeks. For the same molecule, the “Weeks of Delay (21 day equivalency to Normal, 54 hr half-life)” value [2, 15] was 5.7 Weeks, the “Weeks of Delay (21 day equivalency to Normal, 66 hr half-life)” value [2, 15] was 4.6 Weeks and the “Weeks of Delay (21 day equivalency to Normal, 54 hr half-life)” value [2, 16] was 6.3 Weeks. For the same molecule, the “Weeks of Delay (21 day equivalency to Normal, 66 hr half-life)” value [2, 16] was 5.1 Weeks, the “Weeks of Delay (21 day equivalency to Normal, 54 hr half-life)” value [2, 17] was 6.8 Weeks and the “Weeks of Delay (21 day equivalency to Normal, 66 hr half-life)” value [2, 17] was 5.6 Weeks. For the same molecule, the “Weeks of Delay (21 day equivalency to Normal, 54 hr half-life)” value [2, 18] was 7.4 Weeks, the “Weeks of Delay (21 day equivalency to Normal, 66 hr half-life)” value [2, 18] was 6.0 Weeks and the “Weeks of Delay (21 day equivalency to Normal, 54 hr half-life)” value [2, 19] was 8.0 Weeks. For the same molecule, the “Weeks of Delay (21 day equivalency to Normal, 66 hr half-life)” value [2, 19] was 6.5 Weeks, the “Weeks of Delay (21 day equivalency to Normal, 54 hr half-life)” value [2, 20] was 8.6 Weeks and the “Weeks of Delay (21 day equivalency to Normal, 66 hr half-life)” value [2, 20] was 7.0 Weeks. For the same molecule, the “Weeks of Delay (21 day equivalency to Normal, 54 hr half-life)” value [2, 21] was 9.1 Weeks, the “Weeks of Delay (21 day equivalency to Normal, 66 hr half-life)” value [2, 21] was 7.4 Weeks and the “Weeks of Delay (21 day equivalency to Normal, 54 hr half-life)” value [2, 22] was 9.7 Weeks. The “Weeks of Delay (21 day equivalency to Normal, 66 hr half-life)” value [2, 22] was 7.9 Weeks, the “Weeks of Delay (21 day equivalency to Normal, 54 hr half-life)” value [2, 23] was 10.3 Weeks and the “Weeks of Delay (21 day equivalency to Normal, 66 hr half-life)” value [2, 23] was 8.4 Weeks. The “Weeks of Delay (21 day equivalency to Normal, 54 hr half-life)” value [2, 24] was 10.8 Weeks, the “Weeks of Delay (21 day equivalency to Normal, 66 hr half-life)” value [2, 24] was 8.8 Weeks and the “Weeks of Delay (21 day equivalency to Normal, 54 hr half-life)” value ([2]; IM(d) high of IM values, total fat 10 kg) was 6.5 Weeks. For the same molecule, the “Weeks of Delay (21 day equivalency to Normal, 54 hr half-life)” value ([2]; IM(d) high of IM values, total fat 20 kg) was 7.0 Weeks, the “Weeks of Delay (21 day equivalency to Normal, 54 hr half-life)” value ([2]; IM(d) high of IM values, total fat 30 kg) was 7.6 Weeks and the “Weeks of Delay (21 day equivalency to Normal, 54 hr half-life)” value ([2]; IM(d) high of IM values, total fat 40 kg) was 8.2 Weeks. For the same molecule, the “Weeks of Delay (21 day equivalency to Normal, 54 hr half-life)” value ([2]; IM(d) high of IM values, total fat 50 kg) was 8.8 Weeks, the “Weeks of Delay (21 day equivalency to Normal, 54 hr half-life)” value ([2]; IM(d) high of IM values, total fat 60 kg) was 9.3 Weeks and the “Weeks of Delay (21 day equivalency to Normal, 54 hr half-life)” value [2, 25] was 9.9 Weeks. For the same molecule, the “Weeks of Delay (21 day equivalency to Normal, 66 hr half-life)” value [2, 25] was 8.1 Weeks, the “Weeks of Delay (21 day equivalency to Normal, 54 hr half-life)” value [2, 26] was 10.5 Weeks and the “Weeks of Delay (21 day equivalency to Normal, 66 hr half-life)” value [2, 26] was 8.5 Weeks. For the same molecule, the “Weeks of Delay (21 day equivalency to Normal, 54 hr half-life)” value ([2]; IM(d) high of IM values, total fat 90 kg) was 11.0 Weeks, the “Weeks of Delay (21 day equivalency to Normal, 54 hr half-life)” value ([2]; IM(d) high of IM values, total fat 100 kg) was 11.6 Weeks and the “Weeks of Delay (21 day equivalency to Normal, 54 hr half-life)” value [2, 27] was 12.0 Weeks. The “Weeks of Delay (21 day equivalency to Normal, 66 hr half-life)” value [2, 27] was 9.8 Weeks, the “Weeks of Delay (21 day equivalency to Normal, 54 hr half-life)” value [2, 28] was 12.6 Weeks and the “Weeks of Delay (21 day equivalency to Normal, 66 hr half-life)” value [2, 28] was 10.2 Weeks. For the same molecule, the “Weeks of Delay (21 day equivalency to Normal, 54 hr half-life)” value [2, 29] was 13.1 Weeks, the “Weeks of Delay (21 day equivalency to Normal, 66 hr half-life)” value [2, 29] was 10.7 Weeks and the “Weeks of Delay (21 day equivalency to Normal, 54 hr half-life)” value [2, 30] was 13.7 Weeks. For the same molecule, the “Weeks of Delay (21 day equivalency to Normal, 66 hr half-life)” value [2, 30] was 11.2 Weeks, the “Weeks of Delay (21 day equivalency to Normal, 54 hr half-life)” value [2, 31] was 14.3 Weeks and the “Weeks of Delay (21 day equivalency to Normal, 66 hr half-life)” value [2, 31] was 11.6 Weeks. The “Weeks of Delay (21 day equivalency to Normal, 54 hr half-life)” value [2, 32] was 14.8 Weeks, the “Weeks of Delay (21 day equivalency to Normal, 66 hr half-life)” value [2, 32] was 12.1 Weeks and the “Weeks of Delay (21 day equivalency to Normal, 54 hr half-life)” value [2, 33] was 15.4 Weeks. The “Weeks of Delay (21 day equivalency to Normal, 66 hr half-life)” value [2, 33] was 12.5 Weeks, the “Weeks of Delay (21 day equivalency to Normal, 54 hr half-life)” value [2, 34] was 16.0 Weeks and the “Weeks of Delay (21 day equivalency to Normal, 66 hr half-life)” value [2, 34] was 13.0 Weeks. The “Weeks of Delay (21 day equivalency to Normal, 54 hr half-life)” value [2, 35] was 16.6 Weeks, the “Weeks of Delay (21 day equivalency to Normal, 66 hr half-life)” value [2, 35] was 13.5 Weeks and the “Weeks of Delay (21 day equivalency to Normal, 54 hr half-life)” value [2, 36] was 17.1 Weeks. For the same molecule, the “Weeks of Delay (21 day equivalency to Normal, 66 hr half-life)” value [2, 36] was 13.9 Weeks.
